# In the supplement of paper PMC3334620:
# Whole data set: some 33,000 sequences, median “E-score (-0.5 to 0.5)” near -0.053, cut for the highest 2% near 0.37. The list shows a part of the results.
# Biological target: Hap1 (UniProt P0CE41)
# Assay: PBM E-score (8-mer binding enrichment) (E-score (-0.5 to 0.5)); higher = stronger / more preferred TF binding; most listed sequences are background and not binding sites
# Conditions: protein concentration: 200 nM; construct: GST-DNA-binding domain
# In short: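 Detection of bound protein used fluorescent anti-GST, with scans normalised by masliner. The proteins were GST-tagged yeast transcription factors applied at about 100-200 nM to universal all-10-mer Agilent arrays made double-stranded by primer extension. Each ungapped eight-base word, pooled with its reverse complement, was scored with an E-score from the Universal PBM Analysis Suite.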
# Chain of UniProt P0CE41 (P0CE41 whole entry): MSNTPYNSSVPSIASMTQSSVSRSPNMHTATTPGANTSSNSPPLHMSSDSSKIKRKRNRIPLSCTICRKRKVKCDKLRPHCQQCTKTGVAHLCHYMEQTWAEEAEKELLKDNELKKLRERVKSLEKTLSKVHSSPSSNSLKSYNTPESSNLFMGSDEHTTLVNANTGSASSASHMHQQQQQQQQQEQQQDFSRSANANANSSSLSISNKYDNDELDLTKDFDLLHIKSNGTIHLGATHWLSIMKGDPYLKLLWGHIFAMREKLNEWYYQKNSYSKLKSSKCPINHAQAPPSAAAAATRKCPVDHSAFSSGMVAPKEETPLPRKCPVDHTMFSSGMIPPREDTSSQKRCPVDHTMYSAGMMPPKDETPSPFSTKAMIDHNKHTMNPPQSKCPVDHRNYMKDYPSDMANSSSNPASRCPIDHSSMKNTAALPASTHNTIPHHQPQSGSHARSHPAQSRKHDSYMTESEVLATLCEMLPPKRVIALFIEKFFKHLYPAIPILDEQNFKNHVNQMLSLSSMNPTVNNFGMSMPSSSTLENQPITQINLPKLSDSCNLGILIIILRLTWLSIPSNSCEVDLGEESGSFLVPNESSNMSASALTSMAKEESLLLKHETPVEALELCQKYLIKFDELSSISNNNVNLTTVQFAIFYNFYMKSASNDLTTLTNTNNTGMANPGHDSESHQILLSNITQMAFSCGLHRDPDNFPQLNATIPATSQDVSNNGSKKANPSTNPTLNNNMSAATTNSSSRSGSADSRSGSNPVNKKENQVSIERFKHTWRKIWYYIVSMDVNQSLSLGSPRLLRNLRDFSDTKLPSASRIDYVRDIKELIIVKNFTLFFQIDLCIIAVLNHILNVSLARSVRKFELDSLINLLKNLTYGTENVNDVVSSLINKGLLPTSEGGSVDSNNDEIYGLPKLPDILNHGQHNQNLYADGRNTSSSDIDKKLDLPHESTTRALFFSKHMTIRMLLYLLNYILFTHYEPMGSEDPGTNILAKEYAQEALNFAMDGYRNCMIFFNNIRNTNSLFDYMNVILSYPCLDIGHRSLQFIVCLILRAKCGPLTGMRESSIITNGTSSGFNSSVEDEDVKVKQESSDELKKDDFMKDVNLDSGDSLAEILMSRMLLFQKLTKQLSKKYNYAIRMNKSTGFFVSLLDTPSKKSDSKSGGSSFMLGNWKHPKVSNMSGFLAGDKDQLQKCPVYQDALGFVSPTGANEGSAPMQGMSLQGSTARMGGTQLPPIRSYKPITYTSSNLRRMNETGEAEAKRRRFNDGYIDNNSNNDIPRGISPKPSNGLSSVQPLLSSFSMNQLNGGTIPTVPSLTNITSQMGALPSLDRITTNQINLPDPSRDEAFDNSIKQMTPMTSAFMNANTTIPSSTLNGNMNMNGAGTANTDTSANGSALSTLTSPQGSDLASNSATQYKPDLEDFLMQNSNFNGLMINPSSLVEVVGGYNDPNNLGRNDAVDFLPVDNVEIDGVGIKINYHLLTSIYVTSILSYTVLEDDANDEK
row,Sequence,PBM E-score
1,CGTAAATC,0.189
2,TCGGTGAA,0.28
3,AAGCTTAC,-0.253
4,TAACATGA,-0.15
5,AAAACCTC,0.178
6,CGCCCTGC,-0.0955
7,GAGGGAGA,-0.0322
8,ATTAAGCA,-0.0163
9,CAGTGCTC,-0.185
10,CGAGCAGC,0.0468
11,GAGGATCA,-0.22
12,GTGGTTGA,-0.233
13,AGATGGAA,-0.0355
14,AATTTAGT,0.0091
15,TGCGGCCA,0.0873
16,CCAAATGG,-0.14
17,CGGTTCGC,0.0668
18,AAGGCGTA,-0.291
19,ATAGGCTG,-0.138
20,AGTCAGGG,-0.341
21,AGCCTTGC,-0.263
22,ACTATGTC,-0.0699
23,GCTTCGAC,0.00236
24,ACGTAGGG,-0.174

row,Sequence,PBM E-score
1,GAAACTTA,0.0651
2,CGTAGAAA,-0.0576
3,AGTTTTTA,-0.141
4,AGGAAGCA,-0.194
5,AGATTCAT,-0.161
6,TGAACCCA,-0.0651
7,CAGTCGCC,-0.0722
8,CCTGAGGA,-0.164
9,CAAGTGGA,-0.239
10,AAACTTTA,0.0529
11,AGCCGGAT,0.418
12,CACAACAA,-0.232
13,AATCTGGT,0.115
14,CGTACTAC,0.137
15,GACCAAAC,0.0321
16,TAGTCCGA,0.42
17,GCTCAGCA,-0.221
18,AAGTATTA,-0.145
19,ACACCCGC,0.158
20,ACCCCTAC,-0.263
21,AATAGGTG,-0.225
22,CTTGGACA,-0.0486
23,CTTACACC,-0.089
24,AGCCCTAT,-0.152

row,Sequence,PBM E-score
1,AAAAACAT,-0.171
2,AAATTCAT,-0.207
3,ATCGTCCG,0.379
4,ACTTCATG,-0.00326
5,CACCCGTA,0.0859
6,AGAGGAGC,-0.21
7,AACAGTTA,0.155
8,CCGCGAAC,0.191
9,ACGCGCCG,0.188
10,AATCCATG,-0.036
11,AGGGCACT,-0.157
12,ATCTCTTG,-0.188
13,CTCCCATA,-0.297
14,GCTACGCC,-0.0393
15,GAGGGAAA,-0.239
16,ATTGCAGA,-0.155
17,CCGTAACC,0.298
18,CACCCTGG,-0.207
19,ACAGCCAC,-0.0119
20,CCTCATGC,-0.155
21,ACTCTGAG,-0.27
22,ACCATGGT,-0.233
23,CGGTCGTC,0.165
24,CCCCTTTA,-0.337

row,Sequence,PBM E-score
1,CCCCCACC,-0.153
2,ATACTCTC,-0.0193
3,CACGGGAA,0.09
4,GAGAACCA,-0.0916
5,CCCAGACG,-0.143
6,AGGCTCAG,-0.366
7,CCTAGGTA,-0.239
8,GGCGGAAA,0.29
9,ATACCCCC,0.283
10,CGGGAAAC,0.265
11,TGCTACCA,-0.242
12,CTACACTC,-0.194
13,ACCTCTTG,-0.021
14,TAGCACGA,-0.0859
15,AACCCGAA,0.326
16,AATCGAAG,0.0385
17,CAATCCTG,-0.0794
18,CACTCCGG,0.302
19,CGCCGGAC,0.409
20,ATGGCTGA,-0.229
21,TAGCGAGA,-0.102
22,CCGATGCC,0.242
23,ATTTGCGG,0.311
24,AGCCTAGC,-0.14

row,Sequence,PBM E-score
1,AACCCTCT,-0.19
2,AGACCCGA,0.347
3,CCGCGTCA,-0.0323
4,GACTATCC,0.0769
5,ATTAGTAG,-0.134
6,AACAACTT,-0.0394
7,GCCACGGA,0.3
8,CTCCCATC,-0.0417
9,CAGAGACA,-0.22
10,ACACCTCT,-0.15
11,ACAACTTC,0.00956
12,CGGCCTCA,0.204
13,GAATTAGA,-0.0219
14,ACACTTTG,-0.0807
15,GCTGCAAA,-0.0447
16,TTATGAAA,0.0619
17,AGCTCGTC,-0.0097
18,ATTAGACC,0.0558
19,CCGCAAAA,0.295
20,CAACGACC,0.0497
21,GTGGGAAA,-0.0848
22,AGGACCCC,-0.0574
23,CGGGCCCA,0.26
24,CCGATTCA,0.0816

row,Sequence,PBM E-score
1,CCGGGTAC,0.179
2,CTCACCCA,-0.0601
3,CGCGACTC,-0.00413
4,TATAGAGA,-0.388
5,CGTGACAC,0.0111
6,AGCAGATG,-0.378
7,CCATTTCA,-0.277
8,AATCGAAA,-0.0702
9,GCAACGAC,-0.00642
10,CTCATGTA,-0.16
11,AAAGCGGG,-0.0186
12,CCGACTCA,0.163
13,CAAGAGTA,-0.0578
14,GAGACCAC,-0.102
15,CGATCGGA,0.354
16,AGTTTGTA,-0.0891
17,ATATCGAC,0.132
18,CGTATTCA,-0.0827
19,CGATTACG,0.0252
20,ATACCAGC,-0.0328
21,AGGTTGAT,-0.254
22,ATTTGAAG,0.136
23,GACCTACC,0.127
24,GAGGTCCC,0.0465

row,Sequence,PBM E-score
1,TGCGCACA,-0.0738
2,AATTATCG,0.26
3,TACTAGTA,-0.0786
4,ATATTACC,0.0991
5,AATCGGGG,0.301
6,GAGTTCGA,-0.0742
7,AATATAGC,-0.167
8,AGAAGAAA,-0.0706
9,GCTAGCAA,-0.164
10,CGCGGGGC,0.159
11,CAGCCGCC,0.215
12,ACTAGAGC,-0.146
13,ACATAGGA,-0.155
14,GCTCTCGA,-0.271
15,AGTACGAG,0.0666
16,AACGGCGT,0.123
17,CGACTTAG,-0.179
18,GCTAACTA,0.0575
19,GCCCCTTA,0.0201
20,GCCCTAAA,-0.0473
21,ACTCTTCG,0.0527
22,ACCAAACG,-0.162
23,CTACTGTC,-0.136
24,ACTCCAGT,-0.245

row,Sequence,PBM E-score
1,GAGTTTAC,0.223
2,ACTAACAT,-0.0737
3,AACCTAAC,0.12
4,AAGGTGGG,-0.232
5,TGCCCAAA,-0.178
6,CCAGATAA,0.0917
7,GGCATTTA,0.00196
8,ATGAGCTG,-0.138
9,AGCACTAC,-0.202
10,ATGTGTAC,-0.272
11,ACCCTGCG,-0.121
12,AAGTGCCT,-0.246
13,CAACCGGC,0.334
14,ATTAGCTA,-0.14
15,ATTCGCCC,0.252
16,ATAGCGCC,0.171
17,CAAGCAGA,-0.159
18,GCGGAGGA,0.17
19,AAACGGAA,0.274
20,ACGCGTGG,0.0356
21,CCAGACGC,-0.247
22,CAACTAAC,0.163
23,CCTATGGA,-0.035
